Source: paper PMC7819943, “Rice protein-binding microarrays: a tool to detect cis-acting elements near promoter regions in rice”
The list shows a part of the results.

These sequences were tested against T1, OsWOX13 (Oryza sativa, UniProt Q5QMM3 1-267) (assay: protein-binding microarray (RPBM); PBS, 2% BSA, 51.3 ng/ul salmon testes DNA, 50 uM zinc acetate, 200 nM TF, 25 C, 1 h; high values mean tight binding). Settings: protein: recombinant; tags: N-terminal polyhistidine and DsRed monomer fusion (pET32a); label: CyDye5-dUTP incorporated in the synthesized complementary strand; 3' TTTTT single-stranded linker to array surface; dsDNA, one strand shown.
T1 sequence: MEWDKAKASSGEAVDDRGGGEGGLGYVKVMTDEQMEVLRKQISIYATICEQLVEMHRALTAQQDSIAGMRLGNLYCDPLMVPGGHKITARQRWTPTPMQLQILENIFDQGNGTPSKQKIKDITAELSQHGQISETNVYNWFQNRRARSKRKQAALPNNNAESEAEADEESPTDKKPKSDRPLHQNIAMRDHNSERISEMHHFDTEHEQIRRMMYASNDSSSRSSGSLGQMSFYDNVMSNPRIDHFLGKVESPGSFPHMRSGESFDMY
How it was run: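 Ni–NTA purification followed expression in E. coli BL21-CodonPlus of transcription factors fused N-terminally to a polyhistidine tag and DsRed. At 200 nM in PBS with 2% BSA, salmon testes DNA and 50 µM zinc acetate, the protein was incubated for 1 h at 25 °C with a custom Agilent array that had been primer-extended with Cy5-dUTP and blocked with 2% BSA. After washing, the array was read on an Axon 4000B scanner. The binding signal is per-feature fluorescence intensity in arbitrary units.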
For “TTAGCAGAAACCACATGTGATTAGTGATTCCTTGGGTTCCCGGAGTCACCTAGTGCAG”, the binding signal was 3360 fluorescence intensity (a.u.). “TTTACATTTTCTTCAATTTTGATTGCAAATGCCAAGTAAGCGGAGTCACCTAGTGCAG” was tested, and the binding signal was 7140 fluorescence intensity (a.u.). “ATTGTAATAATCTATCATAATAATTAACTTGTTTGTTTCACGGAGTCACCTAGTGCAG” was tested, and the binding signal was 16900 fluorescence intensity (a.u.). With “TTATATGATGATCAATTTAGAAAGGAGAGAGTATTTAGTTCGGAGTCACCTAGTGCAG” the binding signal was 12200 fluorescence intensity (a.u.). With “CACAATCAGAGAGGAAATTGAGCTTATGAGTAAGTCAATCCGGAGTCACCTAGTGCAG” the binding signal was 7020 fluorescence intensity (a.u.). “ATGTTCCTGATTACCCGGTTAGTAAAATTTGAATCGTACTCGGAGTCACCTAGTGCAG” was tested, and the binding signal was 10600 fluorescence intensity (a.u.). For “GGGTGGAGTAGATTGATAATACGGGTGTAGTTCGAGGGTCCGGAGTCACCTAGTGCAG”, the binding signal was 26100 fluorescence intensity (a.u.). “TTCAACCAATTGACAGACCGCATTTGGTACAGCGTCAATTCGGAGTCACCTAGTGCAG” was tested, and the binding signal was 17400 fluorescence intensity (a.u.). “TAAGCTTAATTAGTCTAATGATGGATTAATTAAGCTTAATCGGAGTCACCTAGTGCAG” was tested, and the binding signal was 32400 fluorescence intensity (a.u.). “AATTACTGATTGGTCATTAGTTGCCCTCATGAATCCATGACGGAGTCACCTAGTGCAG” was tested, and the binding signal was 40400 fluorescence intensity (a.u.). “GTTTAGATGATCTACAGTCAATAAGTAACTGTCTTGAAGACGGAGTCACCTAGTGCAG” was tested, and the binding signal was 4470 fluorescence intensity (a.u.). “GTCATAATTTGAAATTCAAATTTAAACTATTCAAACAAAGCGGAGTCACCTAGTGCAG” was tested, and the binding signal was 23300 fluorescence intensity (a.u.). In the case of “GTGATTTACTTTATTATCAAAAGTAAGTATGACTTATCCTCGGAGTCACCTAGTGCAG”, the binding signal was 3870 fluorescence intensity (a.u.). For “ATTCGTCGAATGATAATCATGGCGATAGATTAAGACGCGACGGAGTCACCTAGTGCAG”, the binding signal was 6670 fluorescence intensity (a.u.). In the case of “AGATGATTGGGATAGTTCTCTGGACAGTGATGTGGCATCACGGAGTCACCTAGTGCAG”, the binding signal was 25000 fluorescence intensity (a.u.). For “AGCAGATATTAATTTAATGCTGATCACTGAACATTGATGACGGAGTCACCTAGTGCAG”, the binding signal was 13200 fluorescence intensity (a.u.). In the case of “ATATTTAGACACTAATTTAGAGTATTAAATATAGACTACTCGGAGTCACCTAGTGCAG”, the binding signal was 8680 fluorescence intensity (a.u.). In the case of “AATGAATAAATTTGGCAGTCCAATAATATATATACTTCCACGGAGTCACCTAGTGCAG”, the binding signal was 3850 fluorescence intensity (a.u.). “ACTAGTAATTGCTTCTGGATGACTGAATTAGGTGCATAGACGGAGTCACCTAGTGCAG” was tested, and the binding signal was 21300 fluorescence intensity (a.u.). In the case of “TAATCTACCATTTGATAGACAATTTTCTAGTGTAGCTAAACGGAGTCACCTAGTGCAG”, the binding signal was 3980 fluorescence intensity (a.u.). In the case of “ATAGATATAGATTTGGATTTGATTTGGATTTTGCAGCTCACGGAGTCACCTAGTGCAG”, the binding signal was 12200 fluorescence intensity (a.u.). For “GCTGAAATATACTGATAGTTACAGACAAATATTCATTGGTCGGAGTCACCTAGTGCAG”, the binding signal was 3510 fluorescence intensity (a.u.). In the case of “CACATTTAATTCAAATTTCTGTTCGTCTTACAGTCAGCTACGGAGTCACCTAGTGCAG”, the binding signal was 3420 fluorescence intensity (a.u.). In the case of “ATAGATGTTAATGAATTTATACGTAATATGAAACGGAATGCGGAGTCACCTAGTGCAG”, the binding signal was 6140 fluorescence intensity (a.u.). For “GAAAATTTAACGAAGCAAACAAACAAAGGTGGTTGACCTGCGGAGTCACCTAGTGCAG”, the binding signal was 5110 fluorescence intensity (a.u.). “CCTGAGTGAGTCAAACAGAATTGCTTCCGTGTACATCGAGCGGAGTCACCTAGTGCAG” was tested, and the binding signal was 5660 fluorescence intensity (a.u.). For “AATCAATCAATTGCTGATCGTCTGACTTATATAAGAGGGACGGAGTCACCTAGTGCAG”, the binding signal was 49000 fluorescence intensity (a.u.). With “TTTGATTCATTGTTAAATATACTTTCATGTACACATATAGCGGAGTCACCTAGTGCAG” the binding signal was 4200 fluorescence intensity (a.u.). With “TTTAAAATGGACGGTTAGATTTGAATGGTATATACTTGGTCGGAGTCACCTAGTGCAG” the binding signal was 8100 fluorescence intensity (a.u.). “GCTCTGTATATTGATTTGGTCAGTTGGATTAGGTCAACGACGGAGTCACCTAGTGCAG” was tested, and the binding signal was 4850 fluorescence intensity (a.u.). For “TTGACCTTAATTTGATTATGTGACAATTCAGCTAGTAAATCGGAGTCACCTAGTGCAG”, the binding signal was 15800 fluorescence intensity (a.u.). “ATCAGCAATCAGATCAGTACATCATCAAAGGGTGTGTAGTCGGAGTCACCTAGTGCAG” was tested, and the binding signal was 4610 fluorescence intensity (a.u.). “TCTAATTATATAATGTTTGTCTATTATAAAATATAGACAACGGAGTCACCTAGTGCAG” was tested, and the binding signal was 23800 fluorescence intensity (a.u.). “TCCTAGGTGATCTGGGTGATTGTGAGTGAGTTTTGTTTCGCGGAGTCACCTAGTGCAG” was tested, and the binding signal was 4180 fluorescence intensity (a.u.). In the case of “TATGAATGCATTATGATTACTATTTGCTAATCATAAGTGGCGGAGTCACCTAGTGCAG”, the binding signal was 11000 fluorescence intensity (a.u.). With “ATAATTCACTAATTGAATTTACATAACGGATTTCTAAAGACGGAGTCACCTAGTGCAG” the binding signal was 33700 fluorescence intensity (a.u.). For “GTGCATAAATTTATTAAAATAGAAAATTAATGCAGTGCCACGGAGTCACCTAGTGCAG”, the binding signal was 17100 fluorescence intensity (a.u.). “ATGAATAAAATGATATAATTGAATCGTGGATTGGATAAACCGGAGTCACCTAGTGCAG” was tested, and the binding signal was 19000 fluorescence intensity (a.u.). “ATCCTGCATTCATTACAGTTAGATTGCAAACTAGATGCATCGGAGTCACCTAGTGCAG” was tested, and the binding signal was 3670 fluorescence intensity (a.u.). In the case of “TTATGTGATCAATCATAAAATTCAGATATAAGATACCATACGGAGTCACCTAGTGCAG”, the binding signal was 10000 fluorescence intensity (a.u.). “CCACAGCAGACTGGCTAGTAATTACTACTCCCTCCGTTTCCGGAGTCACCTAGTGCAG” was tested, and the binding signal was 8200 fluorescence intensity (a.u.). With “GGCAGATACAAAGACAATTAATAAACAGACTTTTAAGTTGCGGAGTCACCTAGTGCAG” the binding signal was 3220 fluorescence intensity (a.u.).
